Results as given in the supplement of paper PMC10185492.
This is one part of the list. Read counts after selection give these values, which scatter widely.

Test system: SARS-CoV-2 3CLpro (nsp5)
Assay: substrate phage enrichment score (protease-eluted vs HEPES control, +1 offset) (ratio); higher = better cleaved substrate
Details: selection round: 4; protease elution time: 15 min
Protocol: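 Random heptapeptide substrate phage display (M13 pIII fusion, heptapeptide between an N-terminal biotinylated AviTag GLNDIFEAQKIEWHE and pIII; phages immobilised on streptavidin) eluted by cleavage with 50 nM protease in 20 mM HEPES at 37 °C. Selected phages were NGS sequenced, and the enrichment score is (reads in protease sample + 1)/(reads in HEPES blank-selection control + 1).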

Substance | substrate phage enrichment score
LEHKEND | 0.175
SWQEVEN | 1
VSCPMKH | 0.583
VRPHIII | 0.703
NQTVRFH | > 29
VCQGGSA | 5.5
QGSTPTL | 1.3
TWEQAHR | 2.2
RNWGRWN | 1.65
SCTGLCA | 6.38
AGRQHSW | > 27
IQKPCAY | 6.43
RRQPRLQ | > 26
NRLKLPN | 1.89
VPAHPRT | 11
ARLNTRN | 0.968
SRSNIRP | > 25
QPLSTQN | > 35
RQNTTSE | 0.35
PNSARDV | > 22
QFPGTRQ | 10
TPQQRRP | > 29
HPRCYIP | 12.5
REEVNTR | > 21

Substance | substrate phage enrichment score
ATLSKPS | 5.2
KGADTAE | 2.06
PLPNARN | 4.6
LTDKAHR | > 21
CNDFSVN | > 28
THPDGER | 2.15
MSAAAHH | 3.6
KPGARCG | > 406
KPAAHHH | 0.511
SFNSGHG | > 24
WPCYRTS | > 46
EASQFPS | 6
VSRYDNV | 3.46
MRPEVNN | 1.58
ANAASVK | > 22
CAAAQQQ | 1.89
ETGRAAI | 6.33
VARPTLQ | > 26
THLSPGS | 2.25
SAAAPQQ | 1.8
TKAFPDR | 0.211
IHTQNGD | 0.167
ATTTLPT | > 31
GFQAPGP | 4.08

Substance | substrate phage enrichment score
FRHRSDA | 1.48
KREEETN | > 26
PSDRCKT | > 37
NEGARLQ | 16.7
WENSYGR | 0.222
WRPKSEW | > 21
WSAAAHH | 0.667
RQLSTQC | > 26
PCDHHHH | 12.1
CFKQIQY | > 76
WTPTATV | 3.7
RTPVLNR | > 33
RVVLECR | 4.23
HGTMQSV | > 34
VNDSRDG | > 38
TELQGEL | 0.0769
SSGVPVL | 4.83
SPFDCNR | > 76
NEWKILD | 0.375
TQLSPGQ | > 87
RGAAHHH | 0.824
TGGHESP | > 24
PTRSCHA | 12.5
PLHPSPR | 0.388

Substance | substrate phage enrichment score
CPGVEGG | > 84
SSFTIMQ | > 76
RTSDSCM | 3
RRSRVGR | > 24
CVKPAPI | 10.5
PGTILQL | > 22
HSLQPDI | > 34
TEPAIGV | > 25
RGHAWHP | > 22
PEEQNTS | > 102
VPKCNLQ | > 24
RPKLVTG | 1
KERPNFS | 0.7
DKATERI | 0.211
AVRPFST | 13.3
TRKGARE | 0.412
EERALPE | 1.06
LREHSRW | 0.217
WCRYYVL | 10.5
QCHFSPK | 2.75
SKAHYAT | 2.11
VQGGSAA | 1.08
SEVVQLQ | > 80
KSPVLHP | > 36

Substance | substrate phage enrichment score
TDLSGKL | > 41
IPGAWTS | 1.29
RNGNMHY | 2.86
HPAPSHR | 20
TCTEMPR | 0.595
ARSTVDE | > 28
ARARTQM | 0.192
SSMTSLQ | > 46
GSRGPSQ | 10
CCRNPHA | > 27
ISNVKCQ | 3.38
TATPSLQ | > 119
TKKGPTS | 0.938
RSYIGPD | 4.29
KPAVCPT | 1.08
RPAAICQ | 3.67
GRSSGPL | 2.82
WDNLNKR | 0.783
DIILKTG | > 85
CQGGSAA | 0.16
KSQLHTQ | > 29
GNTYTQG | 1.17
LCGPSRS | > 146
TSKDPGG | > 22

Substance | substrate phage enrichment score
SKFGHGG | 4.5
TRKNCET | 12
GSPRREA | 1.43
STMQIPR | 3.35
STSPFKG | 0.714
VRPFRLQ | > 25
RKHLCPP | 1.17
PQTYRPG | 72.5
SRQEMRA | 2.75
YQGGSAA | 2.58
FGPNPVT | 3
RHIRQST | 7
VSGQADR | > 246
RKGSQNY | > 23
SQLRCHE | 27
CINFQTQ | > 25
PNEMINM | > 31
KSHEVRQ | > 33
GSIHRRP | 5.25
TTIQHPM | 0.959
HCTNETG | 3.27
HRAAHHH | 2.09
APAAHHH | 0.792
TLHMSTQ | 3.4

Substance | substrate phage enrichment score
AGNPSWC | 1.83
PSFGSPG | 2.67
RSDSMNN | > 26
NDRCMVK | > 24
TQVRLES | > 21
LNNLLSQ | > 43
VLRCHVD | 1
RRGECRM | > 34
LDTRRNG | 1.15
STSSLTV | 1
QHDPQEP | > 22
VTLHSGN | 5.25
GFAYEND | > 32
CDLSASR | 2.5
LGHAQDY | 2
HAVPLGS | 0.174
LAAHHHH | 1.28
SEPMCDR | 12
TARKWAQ | 5.08
AFKEATE | > 22
ALRHRNG | 2.38
ITLQALG | > 27
QGGSAAA | 0.754
AVNHPYV | > 40

Substance | substrate phage enrichment score
YSAQRGK | 4.08
ENRLNFQ | > 24
NTAPLIW | > 25
TTQDNER | 7.75
PHIIITI | 0.333
RSLAPSL | 2.69
RCRDTRH | 0.227
FGLCELQ | > 232
SSTCEGK | 0.286
PKTGIHS | > 26
VGAAAHH | 1.07
SQKTYTR | 9.67
HRSEPQT | > 26
RASAHHH | 0.24
SLPGKPN | 0.333
LTGTSYP | 4.2
GVLESVA | 2.1
QSTRSVP | 0.733
TSAAAHH | 0.738
VTDSTMR | 1.36
SPTLIQC | 3.17
DVVQTLQ | > 22
RNASQPT | > 24
LKHSTLQ | > 35

Substance | substrate phage enrichment score
IQNWGTT | 3.6
HLWPGNV | 0.571
HCNAQTA | 2.2
RETAHHH | 0.596
HNTTSAG | 3.07
QGAHPSA | > 52
AGTRHPD | > 27
SDAQVSK | 0.4
AKVSTNW | 0.571
QFPPPTS | 0.333
EAERMYL | 5.2
LKSKRTP | 4
KECQPSG | 1
NTGPVLR | > 68
FASGVKN | > 40
LTAAHHH | 1.32
PATTQSN | > 28
WQSPRKD | > 36
ACSVRLQ | > 29
KDGSSTV | 2.91
FNSSLQS | 15
IRSRLCR | 21
TETPQRQ | > 23
TSLNQLC | > 211

Substance | substrate phage enrichment score
NWNSTLQ | > 142
TRAAHHH | 0.307
TVPSRLQ | 15.7
SRTWPKE | 4.6
RPGRNPV | > 25
SQEQSHT | 2.43
CSGFARQ | 6
QSASACK | 0.389
GAAAHQH | 1.12
GKLKLAP | 2.2
IYSPNVN | > 53
CREELGT | 5
CQLNPIE | > 64
LIFRVVV | 1.79
KTYRPEC | 4.5
TPGTSFR | 0.0741
EDPARPS | > 31
HSATCLQ | > 37
